Measurements taken from PubChem BioAssay AID504339 (National Center for Advancing Translational Sciences (NCATS), 2011).
Out of some 390,000 compounds screened, about 17,000 (4.4%) were called active. Inconclusive results, whose numbers are uncertain, are shown with a selection of clear calls. Calls come from the whole dose curve; as a rule, active = well fitted inhibition curve with a large enough effect; inconclusive = small, poorly fitted or top-dose-only effect; inactive = no such curve, though single readings can be large or run the other way. Potencies beside an inconclusive call are fits to weak or partial responses and may not hold up.
% is set by controls: 0 for no effect and ±100 for the full control effect; potency is the fitted concentration of half-maximal effect; tags give direction and shape of the fitted curve.
Note: nearly all actives have a fitted effect of over 50% in size.

Each molecule was assayed against Lysine-specific demethylase 4A (Homo sapiens) (UniProt O75164) (assay: qHTS Assay for Inhibitors of JMJD2A-Tudor Domain). Conditions: AlphaScreen JMJD2A-Tudor / H3K4me3 peptide binding; activity change, negative = inhibition: at 114 µM (top of the series).
Sequence of UniProt O75164 (O75164 whole entry, looked up, the tested form may be a part): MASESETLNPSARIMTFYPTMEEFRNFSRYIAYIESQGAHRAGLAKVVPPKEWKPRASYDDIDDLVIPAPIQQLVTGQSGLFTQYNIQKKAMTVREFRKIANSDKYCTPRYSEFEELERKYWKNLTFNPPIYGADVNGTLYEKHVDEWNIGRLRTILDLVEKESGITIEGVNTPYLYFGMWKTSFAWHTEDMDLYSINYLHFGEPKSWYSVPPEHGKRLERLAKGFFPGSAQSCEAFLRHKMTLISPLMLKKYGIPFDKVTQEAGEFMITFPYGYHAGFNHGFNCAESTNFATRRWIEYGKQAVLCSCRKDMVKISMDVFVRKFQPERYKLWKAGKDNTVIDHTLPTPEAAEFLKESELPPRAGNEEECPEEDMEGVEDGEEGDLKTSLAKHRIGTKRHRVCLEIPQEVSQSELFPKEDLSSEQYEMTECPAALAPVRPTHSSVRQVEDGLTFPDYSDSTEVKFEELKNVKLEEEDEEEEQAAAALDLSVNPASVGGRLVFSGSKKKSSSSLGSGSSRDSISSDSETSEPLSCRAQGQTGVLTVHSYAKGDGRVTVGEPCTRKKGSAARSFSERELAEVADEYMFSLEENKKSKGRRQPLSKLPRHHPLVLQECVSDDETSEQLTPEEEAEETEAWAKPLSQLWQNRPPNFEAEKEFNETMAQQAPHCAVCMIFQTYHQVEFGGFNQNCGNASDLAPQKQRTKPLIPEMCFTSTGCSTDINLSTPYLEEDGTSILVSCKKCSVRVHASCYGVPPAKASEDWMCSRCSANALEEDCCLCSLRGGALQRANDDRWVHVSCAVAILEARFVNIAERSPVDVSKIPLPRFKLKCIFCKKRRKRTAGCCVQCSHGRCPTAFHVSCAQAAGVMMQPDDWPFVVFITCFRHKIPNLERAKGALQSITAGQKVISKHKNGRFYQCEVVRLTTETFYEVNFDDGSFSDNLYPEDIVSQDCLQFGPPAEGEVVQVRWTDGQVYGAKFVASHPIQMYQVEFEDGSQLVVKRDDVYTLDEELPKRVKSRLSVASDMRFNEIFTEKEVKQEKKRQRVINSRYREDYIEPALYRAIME
For `C[N+]1(C)[C@@H]2CC[C@H]1CC(OC(=O)C(c1ccccc1)c1ccccc1)C2` (some centres not stated), the Potency was inconclusive: 12.6 µM [inhibitor, partial curve].
For `Fc1cccc(CCNCc2ccccn2)c1`, the Potency was active: 3.55 µM.
For `NC(=O)C[N+]1(CC#CC(O)(c2ccccc2)c2ccccc2)CCCC1`, the Potency was active: 31.6 µM.
With `CN(C)c1c([N+](=O)[O-])cc(N2C(=O)C=CC2=O)cc1[N+](=O)[O-]` the Potency was active: 8.91 µM.
With `Cc1ccc(-n2c(C)cc(/C=C3/C(=O)NC(=O)N(C)C3=O)c2C)cc1` the “activity change, negative = inhibition” value was inactive: -22.8%.
For `O=C(Nc1ccc2oc(-c3cccnc3)nc2c1)c1ccc(-c2cccc(Cl)c2)o1`, the Potency was active: 79.4 µM.
In the case of `COC(=O)C1=Nc2ccccc2/C1=C\c1c(O)n(-c2ccc(OC)cc2)c(=O)[nH]c1=O`, the Potency was inconclusive: 100 µM [inhibitor, single point].
With `Fc1cccc(C2NCc3ccccc3-n3cccc32)c1` (configuration not stated) the Potency was inconclusive: 39.8 µM [inhibitor, partial curve].
In the case of `Clc1cccc(CNCCc2c[nH]c3ccccc23)c1`, the Potency was active: 7.08 µM.
For `Cc1cc(S(=O)(=O)NCC(C)C)ccc1OCC(=O)N1CCN(Cc2ccccc2)CC1`, the “activity change, negative = inhibition” value was inactive: -16.4%.
With `CCN(CC)P(=S)(c1c(C)nc2ccccn12)c1c(C)nc2ccccn12` the “activity change, negative = inhibition” value was inactive: -11.7%.
With `C=CCN1C(=O)NC(=O)/C(=C/c2ccoc2)C1=O` the Potency was inconclusive: 70.8 µM [inhibitor, single point].
For `COc1ccc(CN2C(=O)NC(=O)/C(=C\c3cccc(OC)c3OC)C2=O)cc1`, the Potency was active: 56.2 µM.
For `CCn1c(P(C)(=O)O)nc2ccccc21`, the Potency was inconclusive: 70.8 µM [inhibitor, single point].
`CCOC(=O)/C(CCCN(CC)CC)=N\O` was tested, and the Potency was inconclusive: 79.4 µM [inhibitor, partial curve].
`COc1ccccc1/C=N/N=C(/N)N[N+](=O)[O-]` was tested, and the “activity change, negative = inhibition” value was inactive: -7.14%.
`CN(C)C(Cc1ccccc1)C(=O)c1ccc(-c2ccccc2)cc1` (configuration not stated) was tested, and the Potency was inconclusive: 35.5 µM [inhibitor, partial curve].
`CN(CCc1ccccc1)C(=O)c1ccc(NC(=O)Cc2cccc([N+](=O)[O-])c2)cc1` was tested, and the Potency was inconclusive: 15.8 µM [inhibitor, full curve, poor fit].
For `CC(C)=CCc1c(O)cc2c(c1O)C(=O)CC(c1ccc(O)cc1)O2` (configuration not stated), the Potency was inconclusive: 89.1 µM [inhibitor, partial curve].
For `CN(CCc1ccccc1)Cc1ccccc1[N+](=O)[O-]`, the “activity change, negative = inhibition” value was inactive: -9.06%.
`c1ccc2c(N3CCNCC3)cccc2c1` was tested, and the “activity change, negative = inhibition” value was inactive: -15.9%.
In the case of `OCCN(CC#CC(O)(c1ccccc1)C1CCCC1)CCO` (configuration not stated), the Potency was inconclusive: 89.1 µM [inhibitor, single point].
`C/C(CC(c1ccccc1)c1c(O)c2ccccc2oc1=O)=N\Nc1ccc([N+](=O)[O-])cc1[N+](=O)[O-]` (configuration not stated) was tested, and the Potency was active: 35.5 µM.
In the case of `CCN1C(=O)C(=Cc2c(C)n(CC(=O)NCC3CCCO3)c3ccccc23)C(=O)N(CC)C1=S` (configuration not stated), the Potency was inconclusive: 44.7 µM [inhibitor, partial curve].
In the case of `CCOc1ccc(C2c3c(-c4ccccc4O)n[nH]c3C(=O)N2Cc2ccncc2)cc1` (configuration not stated), the Potency was inconclusive: 50.1 µM [inhibitor, partial curve].
`COc1ccc(CN2CCNCC2)c(OC)c1OC` was tested, and the Potency was inconclusive: 70.8 µM [inhibitor, single point].
`C[C@@H](C1CC[C@@]2(O)C3=CC(=O)[C@@H]4C[C@@H](O)[C@@H](O)C[C@]4(C)[C@H]3CC[C@]12C)[C@H](O)CCC(C)(C)O` (some centres not stated) was tested, and the “activity change, negative = inhibition” value was inactive: -5.52%.
For `O=C1NC(=O)C(Nc2ccc(Cl)c(Cl)c2)C(=O)N1`, the Potency was active: 31.6 µM.
In the case of `O=C1NC(c2cccnc2)Nc2sc3c(c21)CCCC3` (configuration not stated), the “activity change, negative = inhibition” value was inactive: -25.7%.
For `O=C1NC(=O)C(=Cc2ccco2)C(=O)N1`, the Potency was active: 44.7 µM.
In the case of `C/C(=N\Nc1ccccc1)c1c(O)n(Cc2ccccc2)c(=O)[nH]c1=O`, the Potency was inconclusive: 79.4 µM [inhibitor, partial curve].
`c1cc2c(cc1N1CCCCC1)C1CC2CCN1` (configuration not stated) was tested, and the Potency was inconclusive: 56.2 µM [inhibitor, partial curve].
For `COc1cccc(-c2nc3ccc(N4CCN(C)CC4)cc3[nH]2)c1`, the Potency was inconclusive: 44.7 µM [inhibitor, partial curve].
For `COc1cccc(CNCCc2ccc3c(c2)OCO3)c1OC`, the Potency was active: 79.4 µM.
With `CSc1ccc(CN2CCN(C(=O)COc3ccc(C)cc3)CC2)cc1` the Potency was active: 8.91 µM.
`Cc1ccc(CN2CCN(Cc3ccccc3F)CC2)cc1` was tested, and the Potency was active: 20 µM.
For `CC(C)c1ccc(N2C(=O)NC(=O)/C(=C/c3cnc(-c4ccccc4)nc3)C2=O)cc1`, the Potency was active: 89.1 µM.
For `NC(=O)CSP(=O)(c1ccccc1)c1ccccc1`, the “activity change, negative = inhibition” value was inactive: -31.4%.
With `COc1ccc(Nc2cc(C)c3cc(NC(=O)c4ccccc4Cl)ccc3n2)cc1` the Potency was inconclusive: 22.4 µM [inhibitor, full curve].
In the case of `O=C(O)C1C2CCC(O2)C1C(=O)NC1CCCCC1` (configuration not stated), the Potency was inconclusive: 31.6 µM [inhibitor, partial curve].
`C=C(C)Cn1c(-c2cccc([N+](=O)[O-])c2)n[nH]c1=S` was tested, and the Potency was active: 8.91 µM.
With `C=C(C)[C@H]1CN[C@H](C(=O)O)[C@H]1CC(=O)O` the Potency was active: 39.8 µM.
`O=c1[nH]c(N2CCN(Cc3ccc4c(c3)OCO4)CC2)nc2c1CCC2` was tested, and the “activity change, negative = inhibition” value was inactive: -12.3%.
For `Cc1cc(OC(C)C(=O)NCc2cccnc2)c2c3c(c(=O)oc2c1)CCC3` (configuration not stated), the Potency was active: 89.1 µM.
With `C=CCc1cc(C=C2C(=O)NC(=O)NC2=O)cc(OC)c1OCc1ccc(C(=O)O)cc1` the “activity change, negative = inhibition” value was inactive: -27.4%.
With `CCOc1ccccc1N1C(=O)NC(=O)/C(=C/c2ccc3c4c(cccc24)CC3)C1=O` the Potency was active: 79.4 µM.
`CC(Cc1ccccc1)NCC(=O)Nc1cc(N(C)C)nc2ccccc12` (configuration not stated) was tested, and the Potency was active: 1.12 µM.
For `Nc1ccccc1C(=O)OCC(=O)N1CCc2ccccc21`, the “activity change, negative = inhibition” value was inactive: -11%.
`CCOP(=O)(C#Cc1ccccc1)C(O)c1ccc(Br)cc1` (configuration not stated) was tested, and the “activity change, negative = inhibition” value was inactive: -12.8%.
`C=CCN1C(=O)NC(=O)/C(=C/c2ccc(OC)c(CSc3ccccn3)c2)C1=O` was tested, and the Potency was active: 79.4 µM.
With `Cc1nonc1OCCNc1ccc([N+](=O)[O-])c2cccnc12` the Potency was inconclusive: 31.6 µM [inhibitor, single point].
`Cc1onc(-c2ccccc2Cl)c1C(=O)NCc1ccc2c(c1)cc(C)n2C` was tested, and the Potency was inconclusive: 28.2 µM [inhibitor, full curve].
In the case of `Oc1ccc(-[n+]2c(-c3ccccc3)cc(-c3ccccc3)cc2-c2ccccc2)cc1`, the Potency was inconclusive: 79.4 µM [inhibitor, single point].
For `CCOC(=O)N1CC(C)N(/[N+]([O-])=N/Oc2ccc([N+](=O)[O-])cc2[N+](=O)[O-])CC1C` (configuration not stated), the Potency was active: 89.1 µM.
For `CC(=O)C1(O)CCC2C3CCC4=C(Cl)C(=O)CCC4(C)C3CCC21C` (configuration not stated), the “activity change, negative = inhibition” value was inactive: -2.76%.
For `O=C1NC(=O)N(Cc2ccco2)C(=O)/C1=C/c1ccc(-c2cccc([N+](=O)[O-])c2)o1`, the Potency was active: 14.1 µM.
`O=C(CSC(=S)N1CCCC1)N/N=C/c1c(O)[nH]c(=S)[nH]c1=O` was tested, and the Potency was active: 56.2 µM.
With `COc1ccccc1NC(=O)N(Cc1ccc2c(c1)OCO2)C1CCN(Cc2ccccc2)CC1` the Potency was inconclusive: 28.2 µM [inhibitor, partial curve].
`CCCCn1c(-c2ccoc2C)n[nH]c1=S` was tested, and the Potency was active: 7.94 µM.
In the case of `Oc1ccccc1CN(CCc1ccccc1)Cc1ccccc1`, the Potency was active: 44.7 µM.
With `CN1CCc2nc3sc(C(=O)NC4CC4)c(N)c3cc2C1` the Potency was inconclusive: 39.8 µM [inhibitor, single point].
With `Cc1cccc(-c2nc3ccc(C(=O)N4CCC5(CC4)OCCO5)cc3nc2-c2cccc(C)c2)c1` the Potency was inconclusive: 44.7 µM [inhibitor, partial curve].
`COc1ccc(CN2C(=O)NC(=O)/C(=C/c3ccc([N+](=O)[O-])s3)C2=O)cc1` was tested, and the Potency was active: 22.4 µM.
In the case of `CCN(CC)S(=O)(=O)c1ccc(NN=C(C#N)C#N)cc1`, the Potency was inconclusive: 39.8 µM [inhibitor, partial curve].
For `CC1Oc2cc3c(-c4c(O)cc(O)c5c(O)c6c(cc45)OC(C)C(C)C6=O)c(O)cc(O)c3c(O)c2C(=O)C1C` (configuration not stated), the Potency was active: 44.7 µM.
For `CCS(=O)(=O)N1CCN(C2CCC(C)CC2)CC1` (configuration not stated), the Potency was active: 6.31 µM.
`CCn1ccnc1CN1CCCC(C(=O)c2ccc(SC)cc2)C1` (configuration not stated) was tested, and the activity change, negative = inhibition was inconclusive: -36.2% [inhibitor].
In the case of `Nc1c(C(=O)Nc2ccc(Br)cc2F)sc2nc3c(cc12)N1CCC3CC1`, the Potency was inconclusive: 22.4 µM [inhibitor, full curve].
With `CCOc1cccc(=NC2CCCCC2)c2c(C)n(C)c(C)c12` the Potency was inconclusive: 44.7 µM [inhibitor, partial curve].
For `COc1ccccc1C=C1C(=O)NC(=S)NC1=O`, the Potency was active: 20 µM.
With `COc1ccc(N2CCN(c3ncnc4c3nc3n4CCCCC3)CC2)cc1` the Potency was inconclusive: 50.1 µM [inhibitor, partial curve].
`O=S(=O)(NC1CCCC1)OCC(Cl)(Cl)Cl` was tested, and the Potency was inconclusive: 56.2 µM [inhibitor, partial curve].
For `CC1CC(OC(=O)c2ccccc2)(c2ccccc2)C(C)CN1C` (configuration not stated), the Potency was inconclusive: 3.55 µM [inhibitor, single point].
With `CCCCCCCSc1cc(OC)c(CCNC)cc1OC` the Potency was active: 44.7 µM.
For `NCCCN1CCN(c2ccccc2)CC1`, the Potency was inconclusive: 56.2 µM [inhibitor, partial curve].
With `C=CCn1c(O)c(C(CC)=NCC2CCCO2)c(=O)[nH]c1=O` (configuration not stated) the “activity change, negative = inhibition” value was inactive: -1.44%.
In the case of `CCCNC1=C(C)C(=O)C2=C(C1=O)C(COC(N)=O)[C@]1(OC)C3NC3CN21` (some centres not stated), the Potency was inconclusive: 56.2 µM [inhibitor, partial curve, poor fit].
